Results as given in the supplement of paper PMC12217912.
Some of the results follow. Sequences were assembled here from the parent chain. Values near 0.05 are background.

B1: TEV protease; numbered along this chain (parent)
chain: MGESLFKGPRDYNPISSSICHLTNESDGHTTSLYGIGFGPFIITNKHLFRRNNGTLVVQSLHGVFKVKDTTTLQQHLVDGRDMIIIRMPKDFPPFPQKLKFREPQREERICLVTTNFQTKSMSSMVSDTSCTFPSGDGIFWKHWIQTKDGQCGSPLVSTRDGFIVGIHSASNFTNTNNYFTSVPKNFMELLTNQEAQQWVSGWRLNADSVLWGGHKVFMVKPEEPFQPVKEATQL

Variants of: B1
Experiment: raw area under fraction-flipped curve 0-4 h after induction (AUC4h, not background-subtracted), DNA-recorder readout of cleavage of the substrate (dimensionless); higher = more cleavage of the substrate by the protease variant
Details: temperature: 34 °C; time window: 0-4 h after rhamnose induction
Protocol: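 In vivo DNA recorder in E. coli TOP10(DE3) ΔrhaA at 34 °C. Each TEVp single-site mutant (parent TEVp 0) is paired with a single-site variant of the 7-mer TEVs (canonical ENLYFQ|S). The substrate sits between flexible linkers in a Bxb1-sfGFP-TEVs-SsrA fusion, so cleavage stabilises Bxb1 and speeds flipping of a recombination array, read by NGS. The value is the raw area under the fraction-flipped curve over 0-4 h after rhamnose induction (AUC4h), with ≥20 reads per time point. It is not background-subtracted; inactive controls average about 0.047.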
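Further: Bxb1 expression induced with 0.2% (w/v) L-rhamnose at OD600 near 0.5, cultures sampled hourly, flipped fraction per protease–substrate barcode pair counted by paired-end Illumina sequencing.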

MGESLFKGPRDYNPISSSICHLTNESDGHTTSLYGIGFGPFIITNKHLFRRNNGTLVVQSLHGVFKVKDTTTLQQHLVDGRDMIIIRMPKDFPPFPQKLKFREPQREERICLVTTNFQTKSMSSMVSDTSCTFPSGDGIFWKHWIQTKDGQCGSPLVSTRDGFIVGIHSASNFTNTNNYFTSVPKNFMELLTNQEEQQWVSGWRLNADSVLWGGHKVFMVKPEEPFQPVKEATQL [A196E]
area with substrate ECLYFQS: 0.125 | area with substrate EDLYFQS: 0.127 | area with substrate EELYFQS: 0.133 | area with substrate EGLYFQS: 0.0799 | area with substrate EILYFQS: 0.111 | area with substrate EKLYFQS: 0.109 | area with substrate ELLYFQS: 0.0915 | area with substrate EMLYFQS: 0.132 | area with substrate EPLYFQS: 0.169 | area with substrate EQLYFQS: 0.113 | area with substrate ERLYFQS: 0.0918 | area with substrate ESLYFQS: 0.104 | area with substrate EVLYFQS: 0.0969 | area with substrate EWLYFQS: 0.0987 | area with substrate EYLYFQS: 0.118

MGESLFKGPRDYNPISSSICHLTNESDGHTTSLYGIGFGPFIITNKHLFRRNNGTLVVQSLHGVFKVKDTTTLQQHLVDGRDMIIIRMPKDFPPFPQKLKFREPQREERICRVTTNFQTKSMSSMVSDTSCTFPSGDGIFWKHWIQTKDGQCGSPLVSTRDGFIVGIHSASNFTNTNNYFTSVPKNFMELLTNQEAQQWVSGWRLNADSVLWGGHKVFMVKPEEPFQPVKEATQL [L112R]
area with substrate ECLYFQS: 0.117 | area with substrate EDLYFQS: 0.0974 | area with substrate EELYFQS: 0.0892 | area with substrate EILYFQS: 0.0819 | area with substrate EPLYFQS: 0.101 | area with substrate EQLYFQS: 0.133 | area with substrate ERLYFQS: 0.0907 | area with substrate ESLYFQS: 0.0924 | area with substrate EVLYFQS: 0.108 | area with substrate EWLYFQS: 0.079

MGESLFKGPRDYNPISSSICHLTNESDGHTTSLYGIGFGPFIITNVHLFRRNNGTLVVQSLHGVFKVKDTTTLQQHLVDGRDMIIIRMPKDFPPFPQKLKFREPQREERICLVTTNFQTKSMSSMVSDTSCTFPSGDGIFWKHWIQTKDGQCGSPLVSTRDGFIVGIHSASNFTNTNNYFTSVPKNFMELLTNQEAQQWVSGWRLNADSVLWGGHKVFMVKPEEPFQPVKEATQL [K46V]
area with substrate ECLYFQS: 0.0571 | area with substrate EDLYFQS: 0.102 | area with substrate EGLYFQS: 0.0635 | area with substrate EHLYFQS: 0.0759 | area with substrate EKLYFQS: 0.0542 | area with substrate ELLYFQS: 0.0784 | area with substrate EMLYFQS: 0.123 | area with substrate EQLYFQS: 0.0839 | area with substrate ERLYFQS: 0.0771 | area with substrate ESLYFQS: 0.0749 | area with substrate ETLYFQS: 0.0646 | area with substrate EVLYFQS: 0.0632 | area with substrate EYLYFQS: 0.0787

MGESLFKGPRDYNPISSSICLLTNESDGHTTSLYGIGFGPFIITNKHLFRRNNGTLVVQSLHGVFKVKDTTTLQQHLVDGRDMIIIRMPKDFPPFPQKLKFREPQREERICLVTTNFQTKSMSSMVSDTSCTFPSGDGIFWKHWIQTKDGQCGSPLVSTRDGFIVGIHSASNFTNTNNYFTSVPKNFMELLTNQEAQQWVSGWRLNADSVLWGGHKVFMVKPEEPFQPVKEATQL [H21L]
area with substrate ECLYFQS: 0.0907 | area with substrate EELYFQS: 0.107 | area with substrate EFLYFQS: 0.092 | area with substrate EGLYFQS: 0.0799 | area with substrate EHLYFQS: 0.0693 | area with substrate EILYFQS: 0.0943 | area with substrate EKLYFQS: 0.0989 | area with substrate ELLYFQS: 0.0761 | area with substrate EPLYFQS: 0.117 | area with substrate EQLYFQS: 0.0858 | area with substrate ERLYFQS: 0.0912 | area with substrate ESLYFQS: 0.0984 | area with substrate ETLYFQS: 0.103 | area with substrate EVLYFQS: 0.0996 | area with substrate EWLYFQS: 0.0956 | area with substrate EYLYFQS: 0.0791

MGESLFKGPRDYNPISSSICHLTNESDGHTTSLYGIGFGPFIITNKHLFRRNNGTLVVQSLHGVFKVKDTTTLQQHLVDGRDMIIIRMPKDFPPFPQKLKFREPQREERICLVTTNFQTKSMSSMVSDCSCTFPSGDGIFWKHWIQTKDGQCGSPLVSTRDGFIVGIHSASNFTNTNNYFTSVPKNFMELLTNQEAQQWVSGWRLNADSVLWGGHKVFMVKPEEPFQPVKEATQL [T129C]
area with substrate ECLYFQS: 0.0914 | area with substrate EELYFQS: 0.118 | area with substrate EGLYFQS: 0.0819 | area with substrate EILYFQS: 0.112 | area with substrate EKLYFQS: 0.0787 | area with substrate ELLYFQS: 0.102 | area with substrate EMLYFQS: 0.144 | area with substrate EPLYFQS: 0.142 | area with substrate EQLYFQS: 0.117 | area with substrate ESLYFQS: 0.0834

MGESLFKGPRDYNPISSSICHLTNESDGHTTSLYGIGFGPFIITNKHLFRRNNGTLVVQSLHGVFKVKDTTTLQQHLVDGRDMIIIRMPKDFPPFPQKLKFREPQREERICLVTTNFQTKSMSSMVSDTSCTFPSGDGIFWKHWIQTKDGQCGSPLVSTRDGFIVGIHSASNFTNTNNYFTSVMKNFMELLTNQEAQQWVSGWRLNADSVLWGGHKVFMVKPEEPFQPVKEATQL [P184M]
area with substrate ECLYFQS: 0.0832 | area with substrate EDLYFQS: 0.0932 | area with substrate EFLYFQS: 0.0859 | area with substrate EILYFQS: 0.0556 | area with substrate ELLYFQS: 0.0694 | area with substrate EMLYFQS: 0.0792 | area with substrate EPLYFQS: 0.0499 | area with substrate EQLYFQS: 0.0727 | area with substrate ERLYFQS: 0.0691 | area with substrate ESLYFQS: 0.0497 | area with substrate ETLYFQS: 0.0899 | area with substrate EVLYFQS: 0.0717

MGESLFKGPRDYNPISSSICHLTNESDGHTTSLYGIGFGPFIITNKHLFRRNNGTLVVQSLHGVFKVKDTTTLQQHLVDGRDMIIIRMPKDFPPFPQKLKFREPQREMRICLVTTNFQTKSMSSMVSDTSCTFPSGDGIFWKHWIQTKDGQCGSPLVSTRDGFIVGIHSASNFTNTNNYFTSVPKNFMELLTNQEAQQWVSGWRLNADSVLWGGHKVFMVKPEEPFQPVKEATQL [E108M]
area with substrate ECLYFQS: 0.0903 | area with substrate EELYFQS: 0.101 | area with substrate EGLYFQS: 0.075 | area with substrate EILYFQS: 0.047 | area with substrate EKLYFQS: 0.0859 | area with substrate ELLYFQS: 0.0816 | area with substrate EPLYFQS: 0.0806 | area with substrate EQLYFQS: 0.0596 | area with substrate ERLYFQS: 0.0794 | area with substrate ESLYFQS: 0.0868 | area with substrate EVLYFQS: 0.0836

MGESLFKGPRDYNPISSSICHLTNESDGHTTSLYGIGFGPFIITNKHLFRRNNGTLVVQSLHGVFKVKDTTTLQQHLVDGRDMIIIRMPKDFPPFPQKLKFREPQREERICLVTTNFQTKSMSSMVSDTSCTFPSGDGIFWKHWIQTKDGQCGSPLVSTRDGFIVGIHSASNFTNTNNYFTSVPKNFMELLTNQEAQQWVSGWRLNADSVLWGGHKVFMVKPEEPFQPVKEATFL [Q234F]
area with substrate ECLYFQS: 0.111 | area with substrate EDLYFQS: 0.101 | area with substrate EHLYFQS: 0.116 | area with substrate EILYFQS: 0.0651 | area with substrate EKLYFQS: 0.0806 | area with substrate EMLYFQS: 0.0893 | area with substrate ERLYFQS: 0.113 | area with substrate ESLYFQS: 0.0861

MGESLFKGPRDYNPISSSICHLTNESDGHTTSLYGIGFGPFIITNKHLFRRNNGTLVVQSLHGVFKVKDTTTLQQHLVDGRDMIIIRMPKDFPPFPQKLKFREPQREERICLVTTNFQTKSMSSMVSDTSCTFPSGDGIFWKHWIQTKDGQCGSPLVSTRDGFIVGIHSASNFTNTNNYFTSVPKNFMELLTNQEAQQWVSGWRLNADSVLWGGHKVFMVKPEEPFQPVFEATQL [K230F]
area with substrate ECLYFQS: 0.0873 | area with substrate EELYFQS: 0.0958 | area with substrate EFLYFQS: 0.099 | area with substrate EGLYFQS: 0.0856 | area with substrate EHLYFQS: 0.0805 | area with substrate EILYFQS: 0.0704 | area with substrate EMLYFQS: 0.0972 | area with substrate EPLYFQS: 0.12 | area with substrate EQLYFQS: 0.0918 | area with substrate ERLYFQS: 0.0902 | area with substrate ESLYFQS: 0.103 | area with substrate ETLYFQS: 0.114 | area with substrate EVLYFQS: 0.0911

MGESLFKGPRDYNPISSSICHLTNESDGHTTSLYGIGFGPFIITNKHLFRRNNGTLVVQSLHGVFKVKDTTTLQQHLVDGRDMIIIRMPKDFPPFPQKLKFREPQREERICLVTTNFQTKSMSSMVSDTSCTFPSGDGIFWKHWIQTKDGQCGSPLVSTSDGFIVGIHSASNFTNTNNYFTSVPKNFMELLTNQEAQQWVSGWRLNADSVLWGGHKVFMVKPEEPFQPVKEATQL [R160S]
area with substrate ECLYFQS: 0.0922 | area with substrate EILYFQS: 0.122 | area with substrate EQLYFQS: 0.137 | area with substrate EVLYFQS: 0.0868
